B1: OR4K15 (parent)
chain: GUUAACGGUCAUAGGCCAUGGAAACUAGGAGCACCAUUUCGCUGCCAGUGAAGAAAUGAACAAAGAAAAUCUGGGCCAGGCAGGCAUCAAAAGAAAUAGUCUUGCGCUCAACCAGAAAGUCUGUAAUCAUUUUAAGGGUA

The source gives no read counts; variants with many changes may rest on few reads.

Variants of B1 are the subject of this data set. As to the kind of experiment: self-cleavage, relative activity (ratio to wild type); higher = more cleavage; in vitro, sequencing; the parent is a self-cleaving ribozyme.
Turning to G29A A62G A69G C113U A117G, the self-cleavage amounted to 0. As to A30G A91G A98G, the self-cleavage amounted to 0.52. Turning to G31U A86G U127C, the self-cleavage came to 0.39. Regarding A27G A51G A91G A111G U127C A129U, the self-cleavage came out at 0. A27U A91G A111U A126G: the self-cleavage came to 0.06.

In the case of G31A U70G G99A A125G, the self-cleavage was determined as 0.2. With G29U A51U A55U A67G A95G U122C A129G the figure was 2.06; with A30G A68G U102A, 1.01; with A27G A67G U72C A135G, 0.3. In the case of G28U A96G A110G U120A, the self-cleavage was 0.22. As for A27G A36U A56G A86G U108C, the self-cleavage worked out at 0. For the variant A27G U103C U108C, the self-cleavage is 0.01. Turning to A27G A68G A82G U124C A140G, the self-cleavage worked out at 0.33.

Regarding A30G A36U A96G, the self-cleavage was 1.82. Consider A27G A52G A56C, for which the self-cleavage was 1.06.

Turning to A30U U43C A67G C77U A86G, the self-cleavage was found to be 2.76. As for A27C A64G A90G U130A, the self-cleavage came to 1.16. With A30U G106A C121U, the self-cleavage is 0.01.

Turning to A27G A64G A94G A96U A111G U124C, the self-cleavage turned out to be 0.01. Turning to A30G C112A A134G, the self-cleavage turned out to be 0.01. As for A30G U127C U139C, the self-cleavage amounted to 0.7. In the case of A30C G31A A66G A78U A117G, the self-cleavage was 0.32. With U26C U108C A126G U130C, the self-cleavage is 0. Turning to A30C U72C A82G A86C A90G U100C, the self-cleavage stood at 0.2. On to A27G U49C G53U A60G A82U C121G, for which the self-cleavage amounted to 0.2. On to A30G A52G U87C A111G A118U A126G, for which the self-cleavage turned out to be 0.01. Take A30U A66G A135U: the self-cleavage turned out to be 1.92. For A30G A51U U57C U87C, the self-cleavage was determined as 1.22. On to A27G A33U U37C A60G, for which the self-cleavage came out at 0.76.

As to A27G A47G A60U U87C A94G A116U, the self-cleavage is 0.31. Regarding A30G A92G A114G U132C, the self-cleavage was 0.41. With G28A U49C A78U, the self-cleavage was 0.39. As for A30G A55G A89G A126G, the self-cleavage was found to be 0.89. For A30G A47G U124C A129G the value was 0.08; for A30G U37C U122A A135U, 1.78. In the case of G31C A56G A67G A90G, the self-cleavage is 1.32. With A27C A51G U103C U120C, the self-cleavage came to 0.44. With A30G A56G U108C, the self-cleavage turned out to be 0. Regarding A30G U38C A66U, the self-cleavage was 1.37. In the case of A27G A30C U38C A60G U70A A78U, the self-cleavage stood at 0.09. Turning to A30G A110G A114G, the self-cleavage worked out at 0.02. With A27G U43A U103C U108A the figure was 0.03; with A27G U39C A56G A114U U122A U132A, 0.1; with A30U A60G A66G A90C, 1.18. A30U G44A U103C U120C: the self-cleavage came to 0.52.

Consider A30G A33G A56G A62G A92U U131C, for which the self-cleavage came out at 0.93. For the variant A27U A69G A90G U103C A117G U127C, the self-cleavage turned out to be 0.02. On to A27G U87A U108C, for which the self-cleavage stood at 0.03. For the variant A27G U37C G44A A98G, the self-cleavage turned out to be 0.58. With A30C A36G U38C A69G the figure was 1.6; with U26C U122C C128A, 1.09; with A30G U103C A114G, 0.16. Regarding A27G A36G C76U, the self-cleavage is 0.05. On to A30G A78G A114U A117G, for which the self-cleavage was 0.05. For the variant G31A U37C A62G A63C, the self-cleavage is 1.64.

Regarding A27G U43C U72C A118G, the self-cleavage amounted to 0.15. As for A27G A47U A91G A116U A118U U122C, the self-cleavage was found to be 0.

Consider A30G A54G A56G A89G A96U A111G, for which the self-cleavage worked out at 0.03. With G31A A68G A117U U130C the figure was 0.58; with A30G A69G A90G A95G, 2.53.

For the variant A30U A59C A129G, the self-cleavage was determined as 0.61. As for A27G A36G A59G, the self-cleavage was 0.7.

On to G28A A129U U131C, for which the self-cleavage came to 0.7. As to A27G U39C G79A, the self-cleavage came out at 0.12.

In the case of A30G A68G U124C, the self-cleavage turned out to be 0.68. For A30U A94U A111G U122A the value was 0.01. Take A30G A33U A90G A111C: the self-cleavage was determined as 0.01.

For the variant A30G A33C A92G A117G, the self-cleavage is 1.41. Consider A30U U57G U72C, for which the self-cleavage came to 0.27.

For the variant A30U A117G U132C, the self-cleavage came out at 2.27. With G29A A30G A52G A63G A68G, the self-cleavage amounted to 1.9. With A30G U38A A60G, the self-cleavage amounted to 1.2. With A27G A54G G74A, the self-cleavage came out at 0.29. For A30U A69G U87C the value was 0.57; for A30G A54G A140G, 1.52; for A30U U37C A92G, 1.64. For A27G U39C G136A the value was 1.02; for A30U G99A A125G, 0.26; for A30G A47U A78U A111G U133C A134U, 0.01. With A27G A55G A114U, the self-cleavage was found to be 0.07. For A30U A60G A116G, the self-cleavage was 0.55. Consider A30U C34U A54G A92G A110G A125G U130C U131C, for which the self-cleavage stood at 0.18.

Turning to G29U A60G A92G A116G, the self-cleavage worked out at 0.79. For A30G A60G A117G the value was 1.33.

(Values after the RNAGym collection of RNA variant scans (doi:10.7554/elife.90254).)
